This is one part of the list. At the low end of the ranking, values are background and their order means little.

This assay has as its target T1, GST-Rok-C97-191 (UniProt O34857).
T1 sequence: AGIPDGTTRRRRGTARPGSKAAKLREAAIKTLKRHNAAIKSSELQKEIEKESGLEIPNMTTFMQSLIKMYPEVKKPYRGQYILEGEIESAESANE
Put plainly: protein binding microarray.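 Also: rank score from −0.5 (least bound) to 0.5 (best bound).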 Particulars: Rok is a gene silencer of Bacillus subtilis; high values mean tight binding; most listed sequences are background and not binding sites; double strand, one strand shown.
With GGAGACTA, the binding signal is -0.021 E-score.

Sequence CCGATTAG came in with a binding signal of 0.0111 E-score.

CCTCGTTA came in with a binding signal of -0.00496 E-score.

The sequence AGCAAAGG returned a binding signal of -0.14 E-score.

GTTGTACA gave a binding signal of 0.25 E-score.

With CCCTGTCC, the binding signal is -0.115 E-score.

As to TGTGAGAA, the binding signal was determined as 0.235 E-score.

Consider AAGGCACC, for which the binding signal was -0.142 E-score.

As for CGTATCTC, the binding signal amounted to 0.111 E-score.

Consider ATGCTATG, for which the binding signal was determined as 0.114 E-score.

As for GGTGGGCA, the binding signal is -0.162 E-score.

As to ACACCGAT, the binding signal was 0.0923 E-score.

In turn, AAGCTATG had a binding signal of 0.0107 E-score.

AGAGATGA gave a binding signal of -0.0749 E-score.

Consider ATCACTCA, for which the binding signal came out at 0.0646 E-score.

Turning to CAACCACA, the binding signal was found to be 0.0325 E-score.

For the sequence CGCGTGGC, the binding signal is -0.276 E-score.

Sequence CCATCACC had a binding signal of -0.16 E-score.

In turn, GAACTCTC returned a binding signal of 0.084 E-score.

Sequence ACCAGCTC gave a binding signal of -0.204 E-score.

The sequence GAGCTGGC showed a binding signal of -0.0572 E-score.

Turning to ACCCGAAA, the binding signal was -0.00438 E-score.

On to CGTCCAGC, for which the binding signal is -0.122 E-score.

The sequence CGATGAGA had a binding signal of 0.0868 E-score.

With AAAGCCTA, the binding signal was found to be 0.0302 E-score.

For the sequence AGTTAGGA, the binding signal was 0.229 E-score.

GACGCTGC came in with a binding signal of -0.153 E-score.

CTTCTTCA came in with a binding signal of -0.143 E-score.

In the case of AGGTAGCA, the binding signal is 0.147 E-score.

With ATCCAGGA, the binding signal was 0.0472 E-score.

In the case of ATGGGTCG, the binding signal is -0.0474 E-score.

ACCATATA showed a binding signal of 0.196 E-score.

For the sequence GCCCCACA, the binding signal was -0.231 E-score.

For the sequence AGATGCCC, the binding signal is -0.206 E-score.

CTGATCTC came in with a binding signal of 0.027 E-score.

For AAAGCTTC, the binding signal was -0.0436 E-score.

Sequence CCGTCGGC yielded a binding signal of -0.185 E-score.

AGGACTCC showed a binding signal of -0.313 E-score.

As to CCTGGCCG, the binding signal was -0.235 E-score.

In turn, ATCATGAA registered a binding signal of 0.128 E-score.

Turning to GGCCCGTA, the binding signal was -0.0434 E-score.

Regarding TCGCAAGA, the binding signal stood at 0.0127 E-score.

With ACCGGTAT, the binding signal was found to be 0.253 E-score.

Turning to AGATAATA, the binding signal amounted to 0.267 E-score.

In the case of CGTAGTAC, the binding signal was 0.186 E-score.

On to AGTAACTC, for which the binding signal turned out to be 0.0388 E-score.

For the sequence CAAGTAGA, the binding signal stood at 0.303 E-score.

Consider ATATGGAC, for which the binding signal is -0.0545 E-score.

GGCCAGGA gave a binding signal of -0.169 E-score.

On to CAGGATCC, for which the binding signal is -0.151 E-score.

Take ACTTCCGG: the binding signal was -0.139 E-score.

For the sequence GATGCATC, the binding signal is -0.0465 E-score.

For ACCGCACT, the binding signal is -0.0355 E-score.

Consider ACCCGCTA, for which the binding signal was determined as 0.0179 E-score.

For CTTGGACC, the binding signal was -0.209 E-score.

Sequence GAATATAA came in with a binding signal of 0.176 E-score.

In turn, AACAAGCA had a binding signal of 0.0447 E-score.

Take CAAAGATG: the binding signal is -0.242 E-score.

Consider ATTCAACC, for which the binding signal was -0.0626 E-score.

As to GCCTTTCA, the binding signal is -0.292 E-score.

ATTCCAGA registered a binding signal of 0.142 E-score.

CACAACAC gave a binding signal of 0.0533 E-score.

TCCTTGAA gave a binding signal of -0.147 E-score.

On to GGTGGGAC, for which the binding signal is -0.143 E-score.

AGATGTGG: the binding signal is -0.141 E-score.

The sequence ACAATGCG had a binding signal of 0.08 E-score.

Take AGTTGGAT: the binding signal came out at 0.0705 E-score.

Regarding TCGTACAA, the binding signal came out at 0.053 E-score.

TCTAACCA gave a binding signal of 0.0979 E-score.

As to GCTATCGA, the binding signal was 0.102 E-score.

CCGGTTGC: the binding signal is -0.337 E-score.

For GCACGGAA, the binding signal came out at 0.11 E-score.

ACCCCAAC showed a binding signal of -0.0328 E-score.

As to AAGGAGGG, the binding signal is -0.215 E-score.

In turn, AACCCTTC came in with a binding signal of -0.0825 E-score.

For the sequence GCTGCGAA, the binding signal was -0.102 E-score.

CCAGAATA came in with a binding signal of 0.123 E-score.

On to GAAAATGC, for which the binding signal stood at 0.0717 E-score.

GACGGATC showed a binding signal of -0.132 E-score.

AGGAGTGC had a binding signal of -0.137 E-score.

The sequence ACTGCCGG came in with a binding signal of -0.0912 E-score.

Consider ACCCCGGT, for which the binding signal is -0.183 E-score.

GGGTAGGA showed a binding signal of -0.0141 E-score.

For AAGCATCA, the binding signal was found to be 0.00544 E-score.

As to GGATGAGA, the binding signal was 0.00888 E-score.

In turn, ACTGTGCA displayed a binding signal of 0.0635 E-score.

For the sequence GCATGACC, the binding signal is -0.238 E-score.

In turn, CCGTTTTC came in with a binding signal of -0.216 E-score.

CTAGCCCA showed a binding signal of -0.177 E-score.

CTCGAGCA registered a binding signal of -0.0442 E-score.

In the case of CAGAAATC, the binding signal was -0.0459 E-score.

For the sequence GTCTGGAA, the binding signal is -0.244 E-score.

Sequence GAAGGGAC yielded a binding signal of -0.267 E-score.

ACAATGGC displayed a binding signal of 0.0354 E-score.

With CGGCTGAG, the binding signal is -0.0955 E-score.

The sequence ACTACTGA displayed a binding signal of 0.269 E-score.

Regarding GTAATAAC, the binding signal came to 0.0936 E-score.

GGTTCGAC had a binding signal of -0.0794 E-score.

Turning to AGCCTCGC, the binding signal is -0.208 E-score.

Take AATAGAGG: the binding signal stood at 0.0621 E-score.

CAGTTTGG: the binding signal is -0.165 E-score.

GATGTATA showed a binding signal of 0.285 E-score.

On to TAACCCGA, for which the binding signal was -0.168 E-score.

As for CGGAATTA, the binding signal was 0.178 E-score.

Regarding ACTAAGAC, the binding signal was 0.0719 E-score.

For GCTAATGA, the binding signal was -0.097 E-score.

In the case of AAATTATG, the binding signal stood at 0.224 E-score.

Take AACAAGGC: the binding signal was -0.278 E-score.

Take AAATAAGC: the binding signal worked out at 0.159 E-score.

In turn, CCCCTCTA came in with a binding signal of -0.202 E-score.

Take GATGAGAC: the binding signal is -0.263 E-score.

AAAGCGTT had a binding signal of 0.0551 E-score.

As to CCTCTCCC, the binding signal is -0.348 E-score.

In the case of TCGGCACA, the binding signal was -0.161 E-score.

ACGGAAGC yielded a binding signal of -0.231 E-score.

The sequence ATCAACTG came in with a binding signal of 0.0687 E-score.

In the case of CTTGACAC, the binding signal was -0.0785 E-score.

For ATCCGGCG, the binding signal was -0.0701 E-score.

CCCTAGCG returned a binding signal of -0.135 E-score.

Sequence AACTCTTG registered a binding signal of -0.0959 E-score.

The sequence ACGATCCT showed a binding signal of -0.0661 E-score.

CTCTTTTC gave a binding signal of -0.0711 E-score.

For GCATAAAA, the binding signal came to 0.202 E-score.

Take ATCCTTTG: the binding signal was -0.0225 E-score.

CAAAATTA returned a binding signal of 0.266 E-score.

In the case of ATGCGTTC, the binding signal is -0.00129 E-score.

GCCTAGAC gave a binding signal of -0.242 E-score.

As to GAGCCACA, the binding signal is -0.286 E-score.

As to ATCACGAC, the binding signal was -0.026 E-score.

As to CAACCAGA, the binding signal was -0.237 E-score.

In turn, ATGCAGAC returned a binding signal of -0.144 E-score.

For GACGCCCC, the binding signal was -0.273 E-score.

Sequence AACGCTGC yielded a binding signal of -0.0555 E-score.

For the sequence TCAGTGCA, the binding signal is -0.0533 E-score.

Take CCGTGGAC: the binding signal was -0.286 E-score.

Consider ACAGATAT, for which the binding signal is 0.185 E-score.

Regarding TGACAGAA, the binding signal was -0.071 E-score.

Sequence CAATGCCC displayed a binding signal of -0.253 E-score.

On to CCAGCAAC, for which the binding signal worked out at 0.11 E-score.

Consider AGCAACAA, for which the binding signal came to 0.167 E-score.

In turn, AAGCTTAG displayed a binding signal of 0.045 E-score.

Sequence ATCGTAAC came in with a binding signal of 0.162 E-score.

As to AAACCGTT, the binding signal is -0.0352 E-score.

GAACGGGA yielded a binding signal of -0.108 E-score.

For the sequence GGCGAGGA, the binding signal is -0.239 E-score.

The sequence CGGAGGTC came in with a binding signal of -0.272 E-score.

CCTCGGAC had a binding signal of -0.185 E-score.

As for CGGAGCGA, the binding signal is -0.155 E-score.

The sequence ATGTACAT came in with a binding signal of 0.377 E-score.

AAGCGCCT gave a binding signal of -0.0269 E-score.

Take GTGGAATA: the binding signal came to 0.208 E-score.

For AAAGGACA, the binding signal is -0.115 E-score.

The sequence ATTAAAAC returned a binding signal of 0.144 E-score.

The sequence AATTCGGA showed a binding signal of 0.174 E-score.

With CCCTGGCG, the binding signal was -0.256 E-score.

The sequence AACCCGAG showed a binding signal of -0.128 E-score.

CACATCTC: the binding signal was 0.00587 E-score.

In turn, ATGAGACA registered a binding signal of -0.0215 E-score.

As for CAGTGCAC, the binding signal is -0.0299 E-score.

Consider CTCTCGAC, for which the binding signal is -0.0912 E-score.

CTGATGCC yielded a binding signal of -0.172 E-score.

Take AAGAATGA: the binding signal was found to be 0.101 E-score.

ACATTACT had a binding signal of 0.263 E-score.

For AGCCTGCA, the binding signal was -0.113 E-score.

Regarding CATACTAC, the binding signal came to 0.284 E-score.

The sequence CCAAAGAA returned a binding signal of -0.0436 E-score.

The sequence CTATCGAC registered a binding signal of 0.176 E-score.

Regarding AAATGCAC, the binding signal was 0.0955 E-score.

In turn, CCGCAGAC displayed a binding signal of -0.128 E-score.

With ATAGTTCG, the binding signal was 0.354 E-score.

As for GCACGTCC, the binding signal is -0.0878 E-score.

With GAAATGGA, the binding signal is -0.0823 E-score.

For the origin of these results see PMC6212790.
